Measurements taken from ChEMBL document CHEMBL5606460, “ASAP - DENV-2 NS2B-NS3 protease fluorescence single point” (2024).
About 110 (5.5%) of roughly 2,000 compounds showed an effect of 50% or more. The list shows a part of the results.

Target: Genome polyprotein (dengue virus type 2) (UniProt P29990)
[1] = Thailand/16681/1984, Concentration 25.0 uM, Number of replicates 1.0

O=Cc1ccc(N2CCC(C(=O)N3CCN(c4ccccc4Cl)CC3)CC2)cc1
inhibition [1]: 11.1%

O=Cc1ccc(N2CCC(C(=O)N(Cc3ccc([N+](=O)[O-])cc3)C3CC3)CC2)cc1
inhibition [1]: 13.8%

O=Cc1ccc(N2CCC(C(=O)N3CC=C(c4ccccc4)CC3)CC2)cc1
inhibition [1]: 5%

c1ccc(-c2csc(C3CCN(Cc4c[nH]c5ccccc45)CC3)n2)cc1
inhibition (Thailand/16681/1984, Concentration 49.5 uM, Number of replicates 2.0, Standard deviation 2.0846990733290722 %): -0.486%
inhibition (Thailand/16681/1984, Concentration 99.01 uM, Number of replicates 2.0, Standard deviation 1.8692609474528468 %): 0.057%
inhibition (Thailand/16681/1984, Concentration 198.0 uM, Number of replicates 2.0, Standard deviation 2.60699247170438 %): -2.95%

O=C1NCc2ccccc2C12CCN(Cc1cc3ccc(F)cc3[nH]1)CC2
inhibition (Thailand/16681/1984, Concentration 49.5 uM, Number of replicates 2.0, Standard deviation 1.2300831692419745 %): 2.45%
inhibition (Thailand/16681/1984, Concentration 99.01 uM, Number of replicates 2.0, Standard deviation 1.1766014315862576 %): 4.6%
inhibition (Thailand/16681/1984, Concentration 198.0 uM, Number of replicates 2.0, Standard deviation 0.78073985434599 %): 4.35%

Cc1cc(C(=O)N2CCN(C(=O)c3cc(C(C)(F)F)n[nH]3)CC2)cc2nn[nH]c12
inhibition (Thailand/16681/1984, Concentration 49.5 uM, Number of replicates 2.0, Standard deviation 0.5040908488530289 %): 1.22%
inhibition (Thailand/16681/1984, Concentration 99.01 uM, Number of replicates 2.0, Standard deviation 0.07028947937337628 %): 1.9%
inhibition (Thailand/16681/1984, Concentration 198.0 uM, Number of replicates 2.0, Standard deviation 0.7181064342983147 %): 2.65%

CNC(=O)c1cc(Cl)ccc1NS(=O)(=O)c1ccc(C(=O)N(C)C)cc1
inhibition (Thailand/16681/1984, Concentration 49.5 uM, Number of replicates 2.0, Standard deviation 0.43931539952348436 %): -0.006%
inhibition (Thailand/16681/1984, Concentration 99.01 uM, Number of replicates 2.0, Standard deviation 1.0448066347124485 %): 1.16%
inhibition (Thailand/16681/1984, Concentration 198.0 uM, Number of replicates 2.0, Standard deviation 2.436767925477247 %): 5.4%

O=Cc1ccc(N2CCC(C(=O)Nc3n[nH]c4ccc(Br)cc34)CC2)cc1
inhibition [1]: 10.1%

Cc1cc(CO)c2cccc(CC(=O)NCc3c(C)noc3C)c2n1
inhibition (Thailand/16681/1984, Concentration 49.95 uM, Number of replicates 2.0, Standard deviation 0.8979901952671747 %): -6.95%
inhibition (Thailand/16681/1984, Concentration 99.9 uM, Number of replicates 2.0, Standard deviation 0.7380557178102791 %): -7.49%

c1ccn2c(CNCc3csc(C4CC4)c3)nnc2c1
inhibition (Thailand/16681/1984, Concentration 49.5 uM, Number of replicates 2.0, Standard deviation 0.5098685495811448 %): -0.274%
inhibition (Thailand/16681/1984, Concentration 99.01 uM, Number of replicates 2.0, Standard deviation 2.854108358582212 %): 2.26%
inhibition (Thailand/16681/1984, Concentration 198.0 uM, Number of replicates 2.0, Standard deviation 0.45642626137563413 %): 0.937%

O=Cc1ccc(N2CCC(C(=O)Nc3cc(Cl)c(O)c(Cl)c3)CC2)cc1
inhibition [1]: 100%

CC(C)(COC(=O)c1cncc(N2CCOCC2)c1)NC(=O)c1cc(N)cc(Cl)c1
inhibition (Thailand/16681/1984, Concentration 49.5 uM, Number of replicates 2.0, Standard deviation 4.620111402718127 %): -0.804%
inhibition (Thailand/16681/1984, Concentration 99.01 uM, Number of replicates 2.0, Standard deviation 4.5497544883871335 %): 0.013%
inhibition (Thailand/16681/1984, Concentration 198.0 uM, Number of replicates 2.0, Standard deviation 3.728922486542004 %): 3.36%

Cc1cc(CO)c2cccc(NC(=O)C3CCN(C)CC3)c2n1
inhibition (Thailand/16681/1984, Concentration 99.9 uM, Number of replicates 2.0, Standard deviation 2.5723142976307076 %): 0.725%

CN1CCN(c2ccc(CCNc3ccccc3F)cc2)CC1
inhibition (Thailand/16681/1984, Concentration 49.5 uM, Number of replicates 2.0, Standard deviation 1.1725472419342977 %): -4.52%
inhibition (Thailand/16681/1984, Concentration 99.01 uM, Number of replicates 2.0, Standard deviation 1.0151129155310683 %): -3.89%
inhibition (Thailand/16681/1984, Concentration 198.0 uM, Number of replicates 2.0, Standard deviation 0.9851713728804441 %): -1.99%

Cc1cc(CO)c2cccc(Cc3cccc(C(=O)NCCN4CCOCC4)c3)c2n1
inhibition (Thailand/16681/1984, Concentration 49.95 uM, Number of replicates 2.0, Standard deviation 1.1800261159088588 %): -8.12%
inhibition (Thailand/16681/1984, Concentration 99.9 uM, Number of replicates 2.0, Standard deviation 0.7869239771342965 %): -3.46%

Cc1cc(CO)c2cccc(Cc3ccccc3C(=O)Nc3cc(C)[nH]n3)c2n1
inhibition (Thailand/16681/1984, Concentration 49.95 uM, Number of replicates 2.0, Standard deviation 0.6446306531775148 %): 2.54%
inhibition (Thailand/16681/1984, Concentration 99.9 uM, Number of replicates 2.0, Standard deviation 0.829324212498438 %): 7.83%

CN1CCN(c2ccccc2NC(=O)C2CCN(c3ccc(C=O)cc3)CC2)CC1
inhibition [1]: 12.3%

CC(C)(CO)NC(=O)c1cc(Cl)cc(NCc2cccc(-c3cn[nH]c3)c2)c1
inhibition (Thailand/16681/1984, Concentration 49.5 uM, Number of replicates 2.0, Standard deviation 0.01630610992668277 %): -6.32%

CCn1ccnc(N2CC[C@@H](C(=O)NC)C2)c1=O
inhibition (Thailand/16681/1984, Concentration 49.5 uM, Number of replicates 2.0, Standard deviation 0.10459397948815125 %): 8.05%
inhibition (Thailand/16681/1984, Concentration 99.01 uM, Number of replicates 2.0, Standard deviation 0.7657576612247314 %): 14.6%
inhibition (Thailand/16681/1984, Concentration 198.0 uM, Number of replicates 2.0, Standard deviation 0.34575656079354644 %): 27.6%

CC(C)(C)OC(=O)NCc1cccc(NC(=O)[C@@H](N)c2ccc(OCc3ccccc3)cc2)c1
inhibition (Thailand/16681/1984, Concentration 49.5 uM, Number of replicates 2.0, Standard deviation 2.6023428313766583 %): 3.49%
inhibition (Thailand/16681/1984, Concentration 99.01 uM, Number of replicates 2.0, Standard deviation 2.442998620533158 %): 2.53%
inhibition (Thailand/16681/1984, Concentration 198.0 uM, Number of replicates 2.0, Standard deviation 1.7754301140360438 %): 1.59%

O=Cc1ccc(N2CCC(C(=O)NCCCOCCOCCO)CC2)cc1
inhibition [1]: 13.6%

CCCCCC(=O)N[C@@H](CC(C)C)C(=O)NCc1cccc(CN)c1
inhibition (Thailand/16681/1984, Concentration 49.5 uM, Number of replicates 2.0, Standard deviation 0.7403519834842739 %): -0.285%
inhibition (Thailand/16681/1984, Concentration 99.01 uM, Number of replicates 2.0, Standard deviation 1.2870735055956777 %): -0.112%
inhibition (Thailand/16681/1984, Concentration 198.0 uM, Number of replicates 2.0, Standard deviation 0.6378417125763649 %): -0.257%

O=C(NCCc1cncnc1)c1cn([C@H]2CCCNC2)nn1
inhibition (Thailand/16681/1984, Concentration 49.5 uM, Number of replicates 2.0, Standard deviation 3.1505652659838077 %): -3.39%
inhibition (Thailand/16681/1984, Concentration 99.01 uM, Number of replicates 2.0, Standard deviation 0.03260817375590849 %): -4.66%
inhibition (Thailand/16681/1984, Concentration 198.0 uM, Number of replicates 2.0, Standard deviation 5.615654862136011 %): -0.277%

C[C@@H](CO)N1CC[C@H](c2c[nH]c3ccccc23)C1
inhibition (Thailand/16681/1984, Concentration 49.5 uM, Number of replicates 2.0, Standard deviation 0.47868013456417424 %): -3.1%
inhibition (Thailand/16681/1984, Concentration 99.01 uM, Number of replicates 2.0, Standard deviation 1.2496220267431397 %): -3.91%
inhibition (Thailand/16681/1984, Concentration 198.0 uM, Number of replicates 2.0, Standard deviation 1.0865654793359512 %): -3.8%

O=Cc1ccc(N2CCC(C(=O)N3CCOCC3)CC2)cc1
inhibition [1]: 13.3%

Cc1cn2ccc(C(=O)Nc3ccncc3C)cc2n1
inhibition (Thailand/16681/1984, Concentration 49.5 uM, Number of replicates 2.0, Standard deviation 1.1051975895382533 %): -2.26%
inhibition (Thailand/16681/1984, Concentration 99.01 uM, Number of replicates 2.0, Standard deviation 0.8986524065509779 %): -1.78%
inhibition (Thailand/16681/1984, Concentration 198.0 uM, Number of replicates 2.0, Standard deviation 0.7727324588911023 %): -2.45%
